The list shows a part of the results.
T1: UNK ZnF1-3 (human, UniProt Q9C0B0 31-174)
T1 sequence: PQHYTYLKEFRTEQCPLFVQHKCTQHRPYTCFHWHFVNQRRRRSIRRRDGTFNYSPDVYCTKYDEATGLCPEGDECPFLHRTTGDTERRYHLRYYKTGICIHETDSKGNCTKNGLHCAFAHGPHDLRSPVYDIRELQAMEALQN

B1: chr20:42825305:42825306:-_ENSG00000132823_ENST00000255174|hu_mus|motif|central (ssRNA)
RNA: GGGAGUUCUACAGUCCGACGAUCUUAAACCAAAGACAGUUUAAAUGAGUCUCAUAAGCUCUACUAUUGAUGGGCUGGCAUCGGCAGCAUGACAAGUGUUCAAUUCAGUUACAAAUGCACAUUUGAGUUUCUUGCUGCCACAUCCAACAGAGGAUUGAGCAUCA
B2: 78383251_78383371_6022_CDS_ENSG00000149256_ENST00000278550|human|control|control (ssRNA)
RNA: GGGAGUUCUACAGUCCGACGAUCGAGGCUGGGCCGCCCCGCCUGGUCGUACAGAAUCCGAAGGGUGAACUUGCGGUGGUCAUCAUAGAUCUUCUCUGUGCGUGUUACGCGAUCAAAGUCCAGAGAUAGGAGAUUUCGGUUGUGCAACAGAGGAUUGAGCAUCA
B3: chrX:71025408:71025409:-_ENSMUSG00000002010_ENSMUST00000052761|mus_hu|FALSE|FALSE (ssRNA)
RNA: GGGAGUUCUACAGUCCGACGAUCAAACACCGCGUACACAUGGCCAUAGUUGGCCCCAGCCACAAGGCCUGGGCCCCCGACCAGUCCCGCGCAGACAUUGUUGACGAUGUUGCCAUAGAGAUUGGGCAUCACCAUGACAUCAAACAACAGAGGAUUGAGCAUCA
B4: chr5:137527996:137527997:-_ENSG00000094880_ENST00000394886|hu_mus|motif|central (ssRNA)
RNA: GGGAGUUCUACAGUCCGACGAUCUUCUCCUAAGGCAACCAGCAUGCGAGAAUCAUUGGGACGAAGCUGGUGGGCCCGUCGGUAAUAAUAAAGGCAAUAAAAUGGCAUUUUAAGGAUUUCGUAAGUCUGCCCAAGGCCAUACCACAACAGAGGAUUGAGCAUCA
B5: chr1:196642912:196642913:+_ENSMUSG00000026640_ENSMUST00000027952|mus_mus|FALSE|FALSE (ssRNA)
RNA: GGGAGUUCUACAGUCCGACGAUCAAUAGGUACAUGAUAAUAUAUUAGAUAACAAAACCCCGCUUUAUUGGAACAUUUUAAAUACUUCAUUUUCUUAUUAUUUCAUAACACCUGUAAAAACAACAAAACCAGACAACCAGCAUUCAACAGAGGAUUGAGCAUCA
B6: chrX:12171913:12171914:+_ENSMUSG00000031007_ENSMUST00000033313|perfect_dup|motif|central (ssRNA)
RNA: GGGAGUUCUACAGUCCGACGAUCCCUGGUAUAGGCCAAUUUCCAUUUCGGAAAACAACAGACCCUGGUGAUUUUAAUAUACGGAACUCGUUCCCCAAAACACCCGCCACCAACGCCAGGAGCACGACAAACACAGCCAUGGUGCAACAGAGGAUUGAGCAUCA
B7: chrX:71549762:71549763:+_ENSMUSG00000019087_ENSMUST00000019231|mus_mus|mus_mus_mus_hu_False|8_38 (ssRNA)
RNA: GGGAGUUCUACAGUCCGACGAUCAAACCCGUGUACUUCUUAUUGUUAGCACAACAUCACCAGAAAACGAUAACGACAGCCAAGCAGGACAGACAGUCAAGUAGUCUUUCCACACUCCCAAACUCAGAGGAACCUCAAACCUUACAACAGAGGAUUGAGCAUCA
B8: 55033538_55033658_1353_3pUTR_ENSG00000169188_ENST00000374987|human|control|control (ssRNA)
RNA: GGGAGUUCUACAGUCCGACGAUCCUUCUCAUCUUUGGCUUCUGAAGUCUUGGCCUGCCCCUUCACCACUUUGGCCACUGCCUUCUCUUCUGGAGUCUUCGGGGUCAUGAGGGCGCUCAUCAGUGGUAGGCUAGGCAGCUCUAUCAACAGAGGAUUGAGCAUCA
B9: chr9:136227202:136227203:+_ENSG00000148291_ENST00000371964|hu_mus|FALSE|FALSE (ssRNA)
RNA: GGGAGUUCUACAGUCCGACGAUCCUCUCUAAAGCUCUUCUCUUCUGAAUGCUCCGGCUUCUCAUCCUGUUGGUCUGUCAGAAAGUCUUCAGGAGUGUCAUCGUUCUUAGGCUUGCCUAGUUCUCUCUUUGUGAACAGCUCAGGCAACAGAGGAUUGAGCAUCA
B10: 14125765_14150144_1339_3pUTR_ENSG00000147862_ENST00000380959|human|control|control (ssRNA)
RNA: GGGAGUUCUACAGUCCGACGAUCCUUGAUCUCUUUCGUGCCAUGUUCGACUUCCAGCAGCUGGUGAACUUGGAGAGGGGUAAAAGUCUCCUGUAGGACUUGGUUCCAUAUUUUCAUCUAUGGAUAUAGUUUUGGGUCUUUUGCCAACAGAGGAUUGAGCAUCA
B11: chr4:57314706:57314707:+_ENSG00000128050_ENST00000264221|hu_mus|hu_hu_hu_mus_True|98_108 (ssRNA)
RNA: GGGAGUUCUACAGUCCGACGAUCCAGUAUUUCAAAUAUAGCCUGUGUGGCAUGACUCAUGAUGUCCACUUCAGUCUGCCCUAUAACAAGGCCAGCAAAACAGAAUUUUGCAGCAAUGAGUUGCUCCUCAGACCACUGUGGAUCCAACAGAGGAUUGAGCAUCA
B12: chr1:213186598:213186599:-_ENSG00000174606_ENST00000366962|hu_mus|motif|central (ssRNA)
RNA: GGGAGUUCUACAGUCCGACGAUCAAACUGCGUUCCAGACUCAAACAGAAAAGGUGGUCUACAGUUCAAUGAGAAAUGCCUGCGGCUGAAGUAUGGGUAAGGCGCACGGGAGUAAUGUCCUGGCCACCUCAGACAACUGGAAAUCAACAGAGGAUUGAGCAUCA
B13: chr5:128440902:128440903:+_ENSG00000066583_ENST00000173527|hu_mus|hu_hu_hu_mus_True|38_78 (ssRNA)
RNA: GGGAGUUCUACAGUCCGACGAUCUUGAACGGUGCUGCCAAGUCCUUUGGGGUAUUGUUCUGUUACAAUAACUGGAAUCCCUAAGAUCCGAGCUCCUUGCAACAAUCUCUGUCCCACACUAAUGAUGUCCCCAAAGUAUUUGAUCAACAGAGGAUUGAGCAUCA
B14: chr7:54825262:54825263:-_ENSG00000132432_ENST00000352861|hu_hu|hu_hu_hu_mus_False|58_78 (ssRNA)
RNA: GGGAGUUCUACAGUCCGACGAUCCUGCCGGCUGGGCUCCACAAACUGCAUUACCUGCAUGACUGCCGUUGGAUGGCACACCUAAAACGUAGAGACACGUAGCUCAGGAGAGAACCGAGCCCAACGGAACCGGAAGCUGGCAACCAACAGAGGAUUGAGCAUCA

Biological target: T1, UNK ZnF1-3
Assay: nsRBNS (natural sequence RNA bind-n-seq); RBNS binding buffer (assumed for nsRBNS): 25 mM Tris pH 7.5, 150 mM KCl, 3 mM MgCl2, 0.01% Triton X-100, 500 ug/ml BSA, 20 U/ml SUPERase-In, 4 C; UNK is unkempt and MSI1 is Musashi-1; names of the RNAs are library labels; protein concentration not given here; high values mean tight binding

Binder	binding signal [enrichment R]
B1	0.421
B2	1.23
B3	0.819
B4	0.923
B5	1.53
B6	1.44
B7	1.48
B8	0.621
B9	0.495
B10	0.652
B11	0.935
B12	1.24
B13	0.695
B14	1.23

Reference: publication PMC12136788
